Results: the BET-seq Pho4 binding data (Le et al. 2018)
The list shows a part of the results. These are noisy estimates, calculated here from bound and input reads.

target: T1, Pho4 (S. cerevisiae) (UniProt P07270); assay: relative binding free energy (BET-seq); higher = weaker binding; details: reference: library average
T1 sequence: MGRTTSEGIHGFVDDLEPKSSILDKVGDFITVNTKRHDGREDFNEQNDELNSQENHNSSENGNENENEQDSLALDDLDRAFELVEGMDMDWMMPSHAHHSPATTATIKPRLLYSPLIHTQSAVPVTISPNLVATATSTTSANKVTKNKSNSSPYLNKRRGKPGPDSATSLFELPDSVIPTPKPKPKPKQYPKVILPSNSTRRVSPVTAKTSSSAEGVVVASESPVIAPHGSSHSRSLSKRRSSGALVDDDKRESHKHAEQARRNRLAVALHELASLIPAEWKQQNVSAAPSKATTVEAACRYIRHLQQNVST

Relative binding free energy, 0.32 kcal/mol:
GCTGACACGTGAAGGT

Relative binding free energy, 0.05 kcal/mol:
TGAGGCACGTGTAAAA, TTTGCCACGTGTAGCG, TGTAACACGTGATAGG

Relative binding free energy, 0.45 kcal/mol:
TTTCACACGTGAGTGG

Relative binding free energy, 0.27 kcal/mol:
AGGTTCACGTGATATA

Relative binding free energy, -0.12 kcal/mol:
GGAGGCACGTGGTTTT, GATGGCACGTGTTGCG, AGAGGCACGTGGGTTG

Relative binding free energy, -0.09 kcal/mol:
ATTGACACGTGGCATG, AGTGGCACGTGTGGGA, TAGGTCACGTGGGGCA, TGTAGCACGTGTCTGA, TGGCGCACGTGCTGGT

Relative binding free energy, 0.02 kcal/mol:
AGGGGCACGTGACATA, TGCCACACGTGTGGTT, AAGTGCACGTGTATAT, TGAAACACGTGTGGAT, ACTTACACGTGGGGGA

Relative binding free energy, 0.1 kcal/mol:
TATAGCACGTGAGCGG, CGTTTCACGTGCAGGT, TGTAGCACGTGAGTCT, ATTGGCACGTGAGAGA

Relative binding free energy, 0.04 kcal/mol:
TATAGCACGTGTGACT, GTGATCACGTGGGGAC, AGGCACACGTGTGAGG, CTGTGCACGTGCGTTG, ATAGTCACGTGGTATG, TTTGCCACGTGTGTCT, TTATACACGTGATGTT

Relative binding free energy, -0.2 kcal/mol:
TATGGCACGTGGGTCG, TGGGCCACGTGGGTCG, AAGTCCACGTGGGGTA

Relative binding free energy, 0.44 kcal/mol:
GGGTTCACGTGAGATG

Relative binding free energy, -0.18 kcal/mol:
TTTAACACGTGGGCTG, GTCAGCACGTGGGGTC, TTTCGCACGTGGTCGG

Relative binding free energy, 0.21 kcal/mol:
GGTGTCACGTGTGAGC, TTAGACACGTGTGATA, GCCATCACGTGTGGGG, ACTTTCACGTGGTTGG

Relative binding free energy, 0.22 kcal/mol:
TCAAGCACGTGAGTTG, AGCTACACGTGTGGGC, GGATGCACGTGAGGCA

Relative binding free energy, 0.23 kcal/mol:
GGCTTCACGTGAAGTG, CTTGTCACGTGATTAA

Relative binding free energy, -0.21 kcal/mol:
GGCGGCACGTGCCTGG

Relative binding free energy, 0.12 kcal/mol:
GAGGTCACGTGTGAAG

Relative binding free energy, 0.3 kcal/mol:
TGAATCACGTGGACTT, GTATTCACGTGTCGTT, AGGAACACGTGAGGCG

Relative binding free energy, 0.54 kcal/mol:
GTGTTCACGTGAAATA

Relative binding free energy, 0.31 kcal/mol:
TTTTGCACGTGAATGC, GTTGACACGTGAGTCA, AGTTCCACGTGAGAGT, GTGGACACGTGAGAGG, ATGTTCACGTGATTGC

Relative binding free energy, 0.38 kcal/mol:
TGTATCACGTGTGAGA, GTTTTCACGTGAGATC

Relative binding free energy, -0.19 kcal/mol:
TGGCGCACGTGGGTGA, ATGGGCACGTGGGGGA, TGTAGCACGTGCTATG, TTTGGCACGTGCGCTA

Relative binding free energy, 0.43 kcal/mol:
GTTTTCACGTGTGAAT, GGATACACGTGAGATT, GATTTCACGTGAGGGC

Relative binding free energy, 0.07 kcal/mol:
TTTTCCACGTGCGTTG, GGATGCACGTGGTTGC, GGCGGCACGTGATGTG, GGCTGCACGTGTTGCA

Relative binding free energy, -0.01 kcal/mol:
TGGGGCACGTGGAAGC, ACAGACACGTGGGGCG, GTGTGCACGTGTCTGG, TGTGACACGTGTGCTT, TAAGTCACGTGGGCTA, GTCGGCACGTGTTTGT, AATAACACGTGGTTTA, TAGTGCACGTGGAGAG, GCGAACACGTGGGGTT, TGTTGCACGTGTTCTA, TTAGGCACGTGATGGG, GATGGCACGTGCGAGG

Relative binding free energy, 0.08 kcal/mol:
TTGTACACGTGGCTTG, TGCATCACGTGGTATT, TAGATCACGTGTGTGA, ATTTGCACGTGTGGGG, GGCGACACGTGGGAGA, TGGTCCACGTGTTCGG, CGTATCACGTGATTGG, TTTCACACGTGTTCTT

Relative binding free energy, 0.4 kcal/mol:
AGGTTCACGTGATAAT

Relative binding free energy, 0.11 kcal/mol:
ATTAGCACGTGTACAT, AGGCGCACGTGAGTTA, AGTAACACGTGATGGT, ACCGGCACGTGTGGGA, GAATACACGTGGCGGG, GGGATCACGTGCTAGT

Relative binding free energy, 0.29 kcal/mol:
ACATTCACGTGATAGT, GGGCTCACGTGTTGTA, TCTTTCACGTGGATGA, AAGGTCACGTGATGAG

Relative binding free energy, -0.14 kcal/mol:
AGTGGCACGTGACAGG

Relative binding free energy, -0.02 kcal/mol:
GGTCCCACGTGTGGGG, CGGGGCACGTGATAAG, GGTGCCACGTGTGAAT

Relative binding free energy, 0.28 kcal/mol:
GTTGTCACGTGTGTAT, GATGACACGTGTTGGG, CGATTCACGTGGGAGG

Relative binding free energy, 0.01 kcal/mol:
GTGTGCACGTGGCTAG, TATGACACGTGTTTTC, TATTGCACGTGCGAGT, GGTTCCACGTGGGTAT

Relative binding free energy, -0.05 kcal/mol:
GGGGACACGTGGGGAA, AATGGCACGTGTTACG, GGTCGCACGTGCGGGT, GTGTACACGTGTTTGC, TGGGTCACGTGCGGAG

Relative binding free energy, 0.39 kcal/mol:
GTAGTCACGTGTAGAG

Relative binding free energy, 0.35 kcal/mol:
GTAGTCACGTGAGTTC

Relative binding free energy, 0.24 kcal/mol:
AGGGTCACGTGAGGAC, TTATTCACGTGGTGCG, CTTGTCACGTGATATA

Relative binding free energy, 0.14 kcal/mol:
TGTAGCACGTGACGGG, TCGAGCACGTGTGAGA, TTGGACACGTGATAGT, GTTTACACGTGGGATG, TTTCACACGTGGTAGT, ATTGCCACGTGGAGCT

Relative binding free energy, -0.03 kcal/mol:
AGCGTCACGTGCTGTG, CGTAGCACGTGGGAAG, AGCAGCACGTGATGGG

Relative binding free energy, -0.17 kcal/mol:
TGGAGCACGTGGCGTG, GTAGGCACGTGGGATG

Relative binding free energy, 0.34 kcal/mol:
GTGCTCACGTGTTTGA

Relative binding free energy, 0.17 kcal/mol:
CCTTACACGTGTTGTT, GGGATCACGTGCGGTT, ACGTTCACGTGGTATG, GAGGTCACGTGAGCGT

Relative binding free energy, -0.23 kcal/mol:
TCGTGCACGTGGGTCT, ATAGGCACGTGGATAT

Relative binding free energy, -0.04 kcal/mol:
TGTAACACGTGGGCGT, GGTCGCACGTGGTTAT, ATAGACACGTGGCGTT

Relative binding free energy, -0.11 kcal/mol:
CTTGGCACGTGCAGGT

Relative binding free energy, 0.13 kcal/mol:
GTTGACACGTGGTCCT, ACGGACACGTGTGTTG, GTATGCACGTGGATCG, TATATCACGTGGTTAC

Relative binding free energy, 0.06 kcal/mol:
TATATCACGTGTCTGT, GGAGTCACGTGTTAAG, GCGGTCACGTGCAGTG, TAGGGCACGTGATGTT, TTCTGCACGTGTTGTC

Relative binding free energy, 0.36 kcal/mol:
GTGTTCACGTGATGTT

Relative binding free energy, -0.08 kcal/mol:
TGGAACACGTGGGACG, CAGGGCACGTGTTTGA

Relative binding free energy, 0.33 kcal/mol:
CTGTTCACGTGGAGTT, TTATTCACGTGAGGGG

Relative binding free energy, -0.1 kcal/mol:
TTCGTCACGTGGGCGG, GAAGACACGTGGTAGT, TGTGCCACGTGTGTCG, TATAACACGTGCGTTG, TAGCCCACGTGTGGGG

Relative binding free energy, -0.07 kcal/mol:
AGGTGCACGTGGACAG, GGCGGCACGTGGATGG, CAATACACGTGGGGGT, TACGGCACGTGGTGTG

Relative binding free energy, 0 kcal/mol:
GTTGCCACGTGGAGGG, TTCGTCACGTGTATGC, CGGAGCACGTGTTGGG, TATTGCACGTGCTTGA

Relative binding free energy, -0.16 kcal/mol:
GTATGCACGTGGGTTA, AAGAGCACGTGGGAGA, TTATGCACGTGCGGTG, TTGGGCACGTGGGTAT

Relative binding free energy, -0.15 kcal/mol:
CGAAGCACGTGGAGGT, TGGTCCACGTGGGATG, ATAAGCACGTGCTGTT

Relative binding free energy, 0.49 kcal/mol:
GAATTCACGTGAGATG

Relative binding free energy, 0.25 kcal/mol:
GGCGGCACGTGGAATT, TAGATCACGTGAGTGA

Relative binding free energy, 0.2 kcal/mol:
GGAGTCACGTGCGTTT, TTTATCACGTGGTAAC, GGTATCACGTGCTTGT, TTTATCACGTGTAATG, GGTTTCACGTGGCATG, TTGTGCACGTGATAAG, TGTGTCACGTGAAACT

Relative binding free energy, 0.18 kcal/mol:
GTGGTCACGTGTCAGC, AATTTCACGTGTTCTT, AAAGTCACGTGAGGGC, TATTTCACGTGCCGGT

Relative binding free energy, 0.47 kcal/mol:
TTTAGCACGTGAAGGC

Relative binding free energy, 0.16 kcal/mol:
CGTTGCACGTGAGGTG, AGCGACACGTGTGGAG

Relative binding free energy, 0.15 kcal/mol:
GCGGGCACGTGATTTA, CTGTTCACGTGTTTTT, GCTATCACGTGGTGTT, GGTGTCACGTGGTGGA, GCGGTCACGTGGTTAA, TGGTACACGTGTGATC, TAGGGCACGTGAAGGT, ATAATCACGTGTAGCG

Relative binding free energy, 0.03 kcal/mol:
TTGATCACGTGCTGAT, GGGAGCACGTGCATTT, CTGTACACGTGTGGTG, CTACTCACGTGGGGTG

Relative binding free energy, 0.09 kcal/mol:
AATGACACGTGTGGTT, TTGACCACGTGATGTT

Relative binding free energy, -0.22 kcal/mol:
TATTGCACGTGGGTCG

Relative binding free energy, -0.06 kcal/mol:
CTATGCACGTGGCGTT, TGGAACACGTGGGCGT, CAGTGCACGTGTTATT, ATTCGCACGTGTTGAG, TATTACACGTGCTTGT, GTCGGCACGTGGTTGA

Relative binding free energy, 0.19 kcal/mol:
TCAATCACGTGTGTTG, TTCTGCACGTGAAGTA, AATTACACGTGATGCT, CGGCTCACGTGGTTAG, TAATTCACGTGGTGAT, GAGTACACGTGTTGAT, CAGGTCACGTGAGGGT, GGAATCACGTGGAGGC, GTATCCACGTGTCGGG

Relative binding free energy, -0.13 kcal/mol:
TGGAGCACGTGTTTAG, TGTAGCACGTGATTGA, GTCCGCACGTGTGGTG, CCAGTCACGTGGGGGG

Relative binding free energy, 0.26 kcal/mol:
TTGTACACGTGATAAG
